Paper PMC4336329 (PLoS ONE, 2015)
Out of some 310,000 compounds screened, about 2,200 (0.71%) showed an effect of 50% or more. The effect is printed as a negative number. Some of the results follow.

Each compound was assayed against human ether-à-go-go-related gene (hERG) potassium channel (human, UniProt Q12809) (assay: primary screen, population patch clamp on CHO cells stably expressing hERG).
human ether-à-go-go-related gene (hERG) potassium channel, sequence (Q12809 whole entry, looked up): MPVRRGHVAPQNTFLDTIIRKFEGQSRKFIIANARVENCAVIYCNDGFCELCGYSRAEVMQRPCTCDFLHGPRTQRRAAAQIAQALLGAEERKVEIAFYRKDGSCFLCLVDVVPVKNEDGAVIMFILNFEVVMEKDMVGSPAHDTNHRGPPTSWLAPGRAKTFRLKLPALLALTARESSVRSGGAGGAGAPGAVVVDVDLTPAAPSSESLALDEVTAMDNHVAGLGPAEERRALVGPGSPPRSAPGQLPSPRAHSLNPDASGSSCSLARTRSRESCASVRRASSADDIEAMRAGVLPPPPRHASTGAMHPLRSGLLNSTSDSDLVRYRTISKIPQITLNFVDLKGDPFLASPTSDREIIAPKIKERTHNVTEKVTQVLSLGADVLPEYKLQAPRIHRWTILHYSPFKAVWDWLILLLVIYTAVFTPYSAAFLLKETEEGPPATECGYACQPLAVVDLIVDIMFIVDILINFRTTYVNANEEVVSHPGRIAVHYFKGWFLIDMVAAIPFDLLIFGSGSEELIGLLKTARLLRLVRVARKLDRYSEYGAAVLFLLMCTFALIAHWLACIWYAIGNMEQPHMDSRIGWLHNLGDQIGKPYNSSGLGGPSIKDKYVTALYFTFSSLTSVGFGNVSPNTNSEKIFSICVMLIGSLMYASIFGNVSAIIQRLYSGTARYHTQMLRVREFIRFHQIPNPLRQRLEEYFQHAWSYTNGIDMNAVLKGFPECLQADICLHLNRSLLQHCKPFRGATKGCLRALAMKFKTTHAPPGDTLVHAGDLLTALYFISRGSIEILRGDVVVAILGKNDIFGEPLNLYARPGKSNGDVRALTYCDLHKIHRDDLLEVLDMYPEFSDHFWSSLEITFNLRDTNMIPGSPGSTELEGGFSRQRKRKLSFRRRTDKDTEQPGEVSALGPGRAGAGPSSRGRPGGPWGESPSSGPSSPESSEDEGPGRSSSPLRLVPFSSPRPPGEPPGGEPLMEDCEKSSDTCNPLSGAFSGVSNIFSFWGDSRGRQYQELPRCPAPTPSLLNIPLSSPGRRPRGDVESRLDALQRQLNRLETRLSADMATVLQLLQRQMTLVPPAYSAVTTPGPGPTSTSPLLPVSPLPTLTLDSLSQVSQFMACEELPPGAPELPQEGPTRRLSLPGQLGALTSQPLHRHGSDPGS

| SMILES | hERG current change (%, negative = inhibition) at 1uM [%] |
| --- | --- |
| Nc1ccc(Nc2ccc([N+](=O)[O-])cc2[N+](=O)[O-])cc1 | -5.55 |
| COc1cc(-c2nnc3n2N=C(c2ccccc2)CS3)cc(OC)c1OC | 0.878 |
| COc1cccc(-n2nc(C(N)=O)c(O)cc2=O)c1 | 2.65 |
| Cc1csc(=O)n1CCC(=O)OCC(=O)Nc1cc([N+](=O)[O-])ccc1Cl | 2.34 |
| O=C(CCN1C(=O)C2C3CCC(C3)C2C1=O)Nc1ccccc1C(F)(F)F (stereo not shown) | 6.67 |
| C#CCOCCOCCOCCNc1nc(N2CCN(C(=O)[C@H]([C@@H](C)O)n3cc(CCCC[NH3+])nn3)CC2)nc(N2CCN(C(=O)[C@H]([C@@H](C)CC)n3cc(CCC[NH+]=C(N)N)nn3)CC2)n1.[Cl-] | 13.6 |
| CN(C)C(CNC(=O)c1ccc2c(c1)S(=O)(=O)c1ccccc1C2=O)c1ccco1 (stereo not shown) | 4.18 |
| CCc1cc(Cn2nc(C(=O)O)cc2-c2ccccc2)on1 | 13.5 |
| COc1cccc(C2C3=C(CCCC3=O)Nc3[nH]n(-c4ccccc4)c(=O)c32)c1 (stereo not shown) | 13.1 |
| COc1ccc(Nc2ccc(S(=O)(=O)N3CCCCC3)cc2[N+](=O)[O-])cc1OC | 5.87 |
| Cc1nn(CC(=O)NCCCN2CCCCC2)c(=O)c2cc(-c3ccccc3)nn12 | -6.31 |
| COc1cccc(Oc2cncnc2-c2ccc(OC)cc2O)c1 | 5.14 |
| CC(C)CN(CCC(=O)O)CC(C)C | 6.16 |
| CN1CC(C(=O)c2ccc(Cl)cc2)C(c2ccc(N(C)C)cc2)C1 (stereo not shown) | -23.4 |
| CCCC(=O)Nc1ccc(Cl)c(NC(=S)NC(=O)c2ccco2)c1 | 14.5 |
| Cc1ccccc1NC(=O)c1ccc(C)c(S(=O)(=O)Nc2ccccn2)c1 | 12.8 |
| Cc1ccc(OCc2ccc(C#N)cc2)c(C(=O)c2cc(C#N)c(=O)n(C3CC3)c2)c1 | 2.14 |
| C=CCN1C(=O)c2ccc(C(=O)N(C)CC(=O)Nc3ccccc3Br)cc2C1=O | 8.42 |
| CC(=O)Oc1ccc(-c2csc(Nc3cccnc3)n2)cc1 | -6.85 |
| CCOc1ccc(CN(CC)C(=O)Cc2c[nH]c3ccccc23)cc1OC | 8.36 |
| Cc1ccc(S(=O)(=O)Nc2cc(=O)[nH]c(SCC(=O)Nc3cccc(C)c3)n2)cc1 | 7.46 |
| CCC1(CC)NC(=S)N(Nc2ccccc2)C1=O | 7.94 |

| SMILES | hERG current change (%, negative = inhibition) at 1uM [%] |
| --- | --- |
| CN(C)S(=O)(=O)c1ccc2c(c1)nc(CCC(=O)NCC1CCCCC1)n2C | -1.12 |
| COc1ccc(N2CCN(C(=O)CS(=O)Cc3nc(-c4ccc(OC)c(OC)c4)oc3C)CC2)cc1 (stereo not shown) | 20.4 |
| CCN(C(=O)CSc1nnnn1-c1ccccc1OC)C1CCS(=O)(=O)C1 (stereo not shown) | 22 |
| O=C(CCn1c(=S)oc2ccccc21)NC1CCCCCC1 | 12.1 |
| Cc1ccc(NC(=O)c2cc3ccccc3cc2O)cc1 | 12 |
| Cc1nc2cc(OCc3cc(C(=O)NC(C)c4cnn(C)c4)no3)ccc2s1 (stereo not shown) | 9.19 |
| O=C(O)CCCCNCc1ccccc1 | 15.5 |
| Cc1sc2nc(SCC(=O)NCc3ccco3)n(CCc3ccccc3)c(=O)c2c1C | 14.4 |
| CCOc1cc(/C=C2\C(=N)N3N=C(C)SC3=NC2=O)ccc1OCCOc1cccc(OC)c1 | 6.85 |
| [N-]=[N+]=NC1CC(CO)OC1n1ccc(=O)[nH]c1=O (stereo not shown) | 9.48 |
| O=C(CSc1nnc(-c2ccccn2)o1)Nc1ccccc1C(F)(F)F | 15.8 |
| CCCCCn1c(=O)[nH]c2cc(C(=O)Nc3ccc(OC)cc3)ccc2c1=O | 10.8 |
| CN(CC1CCOCC1)C(=O)CC1C(=O)NCCN1Cc1ccc(Cl)c(F)c1 (stereo not shown) | 11.1 |
| COc1ccc(C(=O)c2nc3c(n2O)CCCCC3)cc1 | -16.7 |
| Cc1ccc(C)c(NC(=O)CSc2n[nH]c(-c3ccncc3)n2)c1 | 11 |
| Cc1ccc(NC(=O)CSCC(=O)Nc2sccc2C#N)cc1 | 7.83 |
| CCn1c(=O)cc(SCC(=O)N(C)Cc2ccccc2)c2ccccc21 | 0.218 |
| CCCc1noc2c1/C(=N\O)CCC2 | 1.64 |
| COCCCNC(=S)N1CCC(C(=O)c2ccc3c(c2)OCCO3)CC1 | -0.197 |
| CCN1/C(=C/C(C)=C/c2sc3ccccc3[n+]2CC)Sc2ccccc21.[I-] | 10.6 |
| Cc1c(C(c2cccc([N+](=O)[O-])c2O)c2c(C)n(C)n(-c3ccccc3)c2=O)c(=O)n(-c2ccccc2)n1C | 2.29 |
